Out of some 310,000 compounds screened, about 2,200 (0.71%) showed an effect of 50% or more. Effects have a minus sign here. The list shows a part of the results.
target: human ether-à-go-go-related gene (hERG) potassium channel (human, UniProt Q12809); experiment: primary screen, population patch clamp on CHO cells stably expressing hERG
Sequence (Q12809 whole entry, looked up): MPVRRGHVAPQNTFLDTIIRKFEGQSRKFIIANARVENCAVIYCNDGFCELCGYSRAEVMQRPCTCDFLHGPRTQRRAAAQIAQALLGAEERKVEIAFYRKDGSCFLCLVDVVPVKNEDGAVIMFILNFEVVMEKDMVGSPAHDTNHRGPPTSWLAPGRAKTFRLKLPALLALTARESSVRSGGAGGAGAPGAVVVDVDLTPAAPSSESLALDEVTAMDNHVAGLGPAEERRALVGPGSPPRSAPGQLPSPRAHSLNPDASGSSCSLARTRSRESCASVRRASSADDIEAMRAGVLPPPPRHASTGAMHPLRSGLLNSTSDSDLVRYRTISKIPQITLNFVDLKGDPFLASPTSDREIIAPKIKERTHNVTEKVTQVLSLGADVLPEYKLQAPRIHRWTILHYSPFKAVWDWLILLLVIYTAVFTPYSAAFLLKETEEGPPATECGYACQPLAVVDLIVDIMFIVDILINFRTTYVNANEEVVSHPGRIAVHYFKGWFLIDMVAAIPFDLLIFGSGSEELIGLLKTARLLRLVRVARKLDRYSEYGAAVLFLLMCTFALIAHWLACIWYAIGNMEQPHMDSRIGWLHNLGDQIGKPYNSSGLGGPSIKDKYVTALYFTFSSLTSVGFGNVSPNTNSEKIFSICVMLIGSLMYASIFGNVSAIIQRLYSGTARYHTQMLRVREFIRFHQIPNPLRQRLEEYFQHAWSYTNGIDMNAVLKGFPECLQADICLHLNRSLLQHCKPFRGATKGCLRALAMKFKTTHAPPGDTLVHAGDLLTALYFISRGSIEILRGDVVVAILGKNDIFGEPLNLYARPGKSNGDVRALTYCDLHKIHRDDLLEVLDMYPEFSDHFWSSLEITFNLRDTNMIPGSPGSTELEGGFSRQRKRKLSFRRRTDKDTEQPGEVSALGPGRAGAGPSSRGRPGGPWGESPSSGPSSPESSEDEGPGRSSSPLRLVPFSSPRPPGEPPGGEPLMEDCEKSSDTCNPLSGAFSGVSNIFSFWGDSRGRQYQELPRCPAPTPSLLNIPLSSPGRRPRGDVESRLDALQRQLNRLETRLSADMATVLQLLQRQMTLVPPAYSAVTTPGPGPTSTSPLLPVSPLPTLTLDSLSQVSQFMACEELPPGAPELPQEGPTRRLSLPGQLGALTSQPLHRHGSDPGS

In order of rising “hERG current change (%, negative = inhibition) at 1uM” value:
1. CCn1c(SCC(=O)Nc2nc(C)cs2)nnc1-c1ccco1  -21.4%
2. C=CCc1c(C)nc(C)nc1N/N=C/c1ccccc1O  -12.5%
3. COc1cccc(C2N(Cc3ccccc3)C(=O)C2(F)F)c1OC (stereo not drawn)  -6.92%
4. Cc1cc(C)nc(NC2=NCCN2C(=O)NC2CCCCC2)n1  -5.48%
5. CCOc1cc(CNC(CC)CO)ccc1OCC(=O)Nc1cccc(C(F)(F)F)c1 (stereo not drawn)  -3.56%
6. CCOC(=O)c1cccc(NC(=O)CSc2nnc(COc3ccccc3)n2CC)c1  -3.48%
7. Cc1cc(N2CCN(C)CC2)nc2ccc(NC(=O)c3ccccc3F)cc12  -3.39%
8. Cc1ccc(Nc2cc(C)nc3ncnn23)c(Cl)c1  -2.12%
9. CCn1c(SCC(=O)n2nc(C)cc2C)nnc1-c1ccc2c(c1)OCO2  -0.488%
10. Cc1ccc(N2C(=O)CSC2c2cccs2)cc1 (stereo not drawn)  -0.318%
11. CCOC(=O)c1nn(-c2ccccc2)c2nnc(Cc3ccc(Cl)cc3)c(=O)n12  -0.0021%
12. S=C(NCc1ccc(Cl)cc1)NC1CCN(Cc2ccccc2)CC1  0.149%
13. Cc1onc(-c2ccccc2)c1C(=O)Nc1sc2c(c1C#N)CCC2  0.929%
14. CCN(CC)C(=O)CSc1nc(N)c(C(=O)Nc2ccc(OC)cc2)s1  0.991%
15. Cc1cc(C)c2nc(NC(=O)C3CC(=O)N(Cc4ccco4)C3)sc2c1 (stereo not drawn)  1.2%
16. O=c1c2ccccc2nc2c3ccccc3c(NCc3ccco3)nn12  1.44%
17. Cc1cc(OC(F)F)ccc1NC(=O)Nc1ccc([N+](=O)[O-])cc1  1.76%
18. O=C(Nc1ccc2c(c1)nc1n2CCN(C2CCCCC2)C1)NC1CCCCC1  2.2%
19. CCCSc1nc2c(cnn2-c2ccccc2)c(=O)n1N  2.5%
20. COc1ccc(CN2CCCC(N3CCc4ccccc4C3)C2)c(O)c1 (stereo not drawn)  2.89%
21. N#CC1=C(N)OC2=C(C(=O)CCC2)C1C1CC=CCC1 (stereo not drawn)  4.21%
22. CCCCC1=CC2=C(c3ccco3)C(=O)C(C)(OC(=O)c3ccc(OC)cc3)C(=O)C2=CN1C1CC1 (stereo not drawn)  4.3%
23. Clc1ccc(-c2cc(C3CCNCC3)[nH]n2)c(Cl)c1  4.35%
24. CN(Cc1cccc(Cl)c1Cl)C(=O)c1ccc(NC(=O)CC#N)cc1  4.4%
25. COc1ccc(CN(CC2CCCO2)C(=O)c2cc3sccc3n2C)c(OC)c1 (stereo not drawn)  4.44%
26. COc1ccc(C(=O)N(C)CC(=O)Nc2cccc(F)c2)cc1S(=O)(=O)NC1CCCC1  4.68%
27. CC(Nc1c([N+](=O)[O-])c(=O)oc2ccccc12)c1ccccc1 (stereo not drawn)  4.9%
28. COc1ccc(-c2csc3ncnc(N4CCN(S(=O)(=O)c5ccc(C)cc5)CC4)c23)cc1  5.19%
29. Cc1cccc(N2CCN(C(=O)C3CCCN(S(=O)(=O)c4c(C)noc4C)C3)CC2)c1C (stereo not drawn)  5.34%
30. Cc1cc(OCCn2ccnc2)cc(C(C)C)c1.O=C(O)C(=O)O  5.63%
31. CCOc1ccccc1C1CC(=O)NC(SCC(=O)Nc2nccs2)=C1C#N (stereo not drawn)  5.71%
32. CC1CCN(S(=O)(=O)CCNC(=O)c2ccc(F)cc2)CC1  6.14%
33. CCOc1cc(C(=O)OCC(=O)Nc2ncc(Cl)c(C)c2Cl)ccc1OCC(=O)N1CCOCC1  6.16%
34. O=C(N/N=C1\CCCCc2ccccc21)c1ccccn1  6.16%
35. CCN(CC)CCCNC(=O)C1c2cc(OC)c(OC)cc2C(=O)N(C)C1c1cccs1 (stereo not drawn)  6.42%
36. COC(=O)Cc1ccc(NC(=S)N2CCN(c3ccc(F)cc3)CC2)cc1  6.47%
37. COc1ccc(C(=O)NCc2ccc3c(c2)OCO3)cc1  6.55%
38. O=C(Cc1ccccc1F)Nc1cc(S(=O)(=O)N2CCOCC2)ccc1N1CCOCC1  6.8%
39. COc1ccc(C)cc1NC(=O)CNCc1cccs1.Cl  7%
40. CN(C(=O)CSc1nnc(NCc2ccccc2)s1)C1CCS(=O)(=O)C1 (stereo not drawn)  7.52%
41. O=S(=O)(c1cccc(F)c1)N1CCCN(c2ccc(C(F)(F)F)cn2)CC1  7.54%
42. C/C(=N\Nc1ccc([N+](=O)[O-])cc1[N+](=O)[O-])c1cc2c(ccc3ccccc32)oc1=O  7.62%
43. CCCCC(=O)Nc1c(-c2cccc(OC)c2)c(=O)c2ccccc2n1C  7.9%
44. CCN(CC)S(=O)(=O)c1cccc(C(=O)N2CCCCC2)c1  8.23%
45. CCN1CCN(c2nc3c(c(=O)[nH]c(=O)n3C)n2Cc2ccccc2F)CC1  8.37%
46. Cc1nc2nc(Cc3ccccc3)[nH]n2c(=O)c1Cc1ccccc1  8.81%
47. O=C(CC(=O)N/N=C/c1ccccc1)NCc1ccccc1  8.85%
48. Cc1cc(=O)oc2cc(NC(=O)C3CC(=O)N(Cc4ccccc4)C3)ccc12 (stereo not drawn)  8.91%
49. COc1ccc(OC)c(Nc2nc(-c3sc(C)nc3C)cs2)c1  9.09%
50. CCN(CC)C(=O)CC(c1ccc2c(c1)OCO2)c1c(OC)cc(OC)c2c(-c3ccccc3)cc(=O)oc12 (stereo not drawn)  9.25%
51. Cc1ccc(S(C)(=O)=NS(=O)(=O)c2cccc3nsnc23)cc1 (stereo not drawn)  9.72%
52. CCCCCc1c(C)nc(Nc2ccc(F)cc2)[nH]c1=O  9.73%
53. Cc1nn(-c2ccccc2)c(C)c1C(=O)NCCc1ccc(Cl)cc1  9.8%
54. CC(OC(=O)c1cc(Cl)ccc1[N+](=O)[O-])C(=O)NC(C)c1ccc(F)cc1 (stereo not drawn)  10.5%
55. COc1ccc2cc(C(=O)N3CCOCC3)sc(=O)c2c1OC  10.5%
56. O=S(=O)(NC1CC1)c1ccc(Cl)cc1  10.8%
57. O=C(Cc1ccc(Cl)cc1)NCc1nc(-c2ccccc2)no1  11.4%
58. O=C(Nc1ccc2c(c1)OCCO2)c1cccc(C(=O)Nc2ccc3c(c2)OCCO3)c1  12.8%
59. COc1cccc(C(=O)Nc2ccc(NC(=O)c3cc4ccccc4o3)c(OC)c2)c1  12.8%
60. COc1ccccc1CNC(=O)CN1C(=O)NC2(CCCc3ccccc32)C1=O (stereo not drawn)  13.2%
61. CCN(CC)CC.COc1cc2c(cc1OC)[C@H](C)N(C(=S)Nc1ccc(F)cc1)CC2  13.2%
62. CSC1=N/C(=C\c2cccc(Cl)c2)C(=O)N1N(C)C  13.3%
63. CC(=O)n1c(-c2ccccc2)c(CO)c2ccccc21  13.5%
64. CN(Cc1ccccc1)C(=O)c1cn(C)c2ccc(S(=O)(=O)N3CCCC3)cc2c1=O  13.8%
65. CCN1CCN(CCC(=O)Nc2cc(OC)cc(OC)c2)CC1  14%
66. Cc1ccc(CCNC(=O)c2cccc(NC3=NC4CS(=O)(=O)CC4S3)c2)cc1 (stereo not drawn)  14.8%
67. O=C(CC1C(=O)NCCN1C/C=C/c1ccccc1)NCCc1cnccn1 (stereo not drawn)  14.8%
68. COc1cc2c(-c3ccc4[nH]ccc4c3)c(-c3ccc(C#N)cc3)oc(=O)c2cc1OC  14.9%
69. CCC(C(=O)OC)n1c(-c2ccccc2)nc2ccccc2c1=O (stereo not drawn)  14.9%
70. Cc1c(NC(=O)C(C)Sc2nccn2C)c(=O)n(-c2ccccc2)n1C (stereo not drawn)  15.3%
71. CC1(C)C(=O)Nc2ccccc2N1C(=O)COc1ccc(S(=O)(=O)N2CCOCC2)cc1Cl  15.4%
72. CCC(C)(C)NC(=O)C(c1ccncc1)N(C(=O)c1sc(C)nc1C)c1ccc(C)cc1 (stereo not drawn)  15.6%
73. O=C1Nc2ccccc2SC1c1ccccc1 (stereo not drawn)  15.8%
74. COC(=O)C1SCC2C(=O)N(Cc3ccc(Cl)cc3)CC(=O)N21 (stereo not drawn)  16%
75. COc1ccc(CC2SC(N)=NC2=O)cc1 (stereo not drawn)  16.4%
76. Cc1ccc(C(=O)NC23CC4CC(CC(C4)C2)C3)c(Cl)c1  16.4%
77. CCCC(C)NC(=O)c1ccc(OCc2ccc(Cl)cc2)c(OC)c1 (stereo not drawn)  16.6%
78. ON1C2CCCCC2N(O)C1c1ccccc1F (stereo not drawn)  16.7%
79. COc1cccc(N2CC(NC(=O)C(=O)c3c[nH]c4ccccc34)CC2=O)c1 (stereo not drawn)  17.2%
80. CCOC(=O)c1ccc2[nH]c3ccccc3c2c1  17.4%
81. Cc1cc(C)cc(-n2nnnc2SCC(=O)Nc2nc(-c3ccc(Cl)cc3)cs2)c1  18.6%
82. Cc1cccc(N=Nc2c(N)n[nH]c2N)c1  20%
83. COC(=O)c1c(C(=O)OC)c(-c2cccc(Cl)c2)n2c1CS(=O)C2 (stereo not drawn)  20.5%
84. COc1ccc(/C=C2\CCCC3C2=NN(C(=O)COC(=O)CNC(=O)c2ccccc2)C3c2ccc(OC)cc2)cc1 (stereo not drawn)  22.9%
85. Nc1nonc1C(=O)NCCc1ccccc1  23.9%
86. O=C(N/N=C\c1cccc(F)c1)c1ccc(-c2ccccc2)cc1  24.2%
87. O=C(COC(=O)c1cccc(S(=O)(=O)N2CCc3ccccc32)c1)NCc1ccco1  24.9%

Reference: article PMC4336329 (PLoS ONE, 2015)
